From publication PMC4336329 (PLoS ONE, 2015)
The whole screen tested about 310,000 compounds, of which about 14,000 (4.5%) showed an effect of 50% or more. The effect is printed as a negative number. The list shows a part of the results.

target: human ether-à-go-go-related gene (hERG) potassium channel (human, UniProt Q12809); experiment: primary screen, population patch clamp on CHO cells stably expressing hERG
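Also: peak tail current of the secondary pulse compared with the same well before compound.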

Sequence of human ether-à-go-go-related gene (hERG) potassium channel (Q12809 whole entry, looked up): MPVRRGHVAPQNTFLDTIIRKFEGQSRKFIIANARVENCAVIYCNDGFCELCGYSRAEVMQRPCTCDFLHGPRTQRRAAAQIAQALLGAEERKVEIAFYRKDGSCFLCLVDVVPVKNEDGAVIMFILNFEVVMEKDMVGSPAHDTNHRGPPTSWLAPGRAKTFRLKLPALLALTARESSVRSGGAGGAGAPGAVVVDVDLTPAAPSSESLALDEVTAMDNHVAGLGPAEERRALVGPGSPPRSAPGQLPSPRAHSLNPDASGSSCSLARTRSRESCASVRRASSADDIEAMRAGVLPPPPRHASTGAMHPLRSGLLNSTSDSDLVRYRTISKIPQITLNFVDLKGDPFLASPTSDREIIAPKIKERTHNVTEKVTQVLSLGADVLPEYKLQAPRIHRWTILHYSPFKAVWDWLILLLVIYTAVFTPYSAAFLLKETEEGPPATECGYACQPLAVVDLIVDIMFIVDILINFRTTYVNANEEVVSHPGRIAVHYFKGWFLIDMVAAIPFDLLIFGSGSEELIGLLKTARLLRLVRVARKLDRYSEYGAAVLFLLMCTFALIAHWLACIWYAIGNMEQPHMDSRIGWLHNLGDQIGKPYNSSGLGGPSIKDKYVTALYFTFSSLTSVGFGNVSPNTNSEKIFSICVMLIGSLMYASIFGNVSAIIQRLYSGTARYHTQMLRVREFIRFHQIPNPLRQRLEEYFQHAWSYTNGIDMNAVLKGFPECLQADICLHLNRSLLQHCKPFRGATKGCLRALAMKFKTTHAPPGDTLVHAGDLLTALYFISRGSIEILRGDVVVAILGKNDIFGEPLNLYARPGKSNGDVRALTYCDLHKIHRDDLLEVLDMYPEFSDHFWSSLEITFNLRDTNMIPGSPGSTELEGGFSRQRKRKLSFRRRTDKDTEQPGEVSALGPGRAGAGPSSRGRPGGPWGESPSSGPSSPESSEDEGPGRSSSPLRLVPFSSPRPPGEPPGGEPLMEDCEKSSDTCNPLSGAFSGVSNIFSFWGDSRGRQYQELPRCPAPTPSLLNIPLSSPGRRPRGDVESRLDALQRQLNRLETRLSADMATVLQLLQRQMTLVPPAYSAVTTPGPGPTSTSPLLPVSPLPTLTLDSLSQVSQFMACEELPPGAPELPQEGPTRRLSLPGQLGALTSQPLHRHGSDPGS

Compound | hERG current change (%, negative = inhibition) at 10uM [%]
O=C(O)c1ccc(/C=N/NC(=O)c2ccc3c(c2)OCCO3)cc1 | 16.1
CCSc1nnc(NC(=O)COc2ccc(Cl)cc2)s1 | 24
CCn1c(SCC(=O)NC2CCCC2)nnc1-c1ccoc1C | 14
O=C(CCc1ccccc1)NN1C(=O)C2C3C=CC(O3)C2C1=O (centres unmarked) | 17.2
Cc1ccc(S(=O)(=O)N(C)CC(=O)OCc2nnc(-c3ccccc3)o2)cc1 | -39.4
C=CCN1C(=O)/C(=C/C=C2/N(CC)c3ccc(S(=O)(=O)N(C)C)cc3N2CC)SC1=S | -56
Cc1ccc(NC(=O)COC(=O)CN2CCCCCC2=O)cc1C | -21.1
Nc1nc(N)nc(COc2ccccc2)n1 | 22.3
CCN(CC)S(=O)(=O)c1ccc(OC)c(NC(=S)Nc2cccc(C)c2)c1 | -12.5
CSc1ccc(S(=O)(=O)NCC(=O)OC(C)C(=O)NCc2ccccc2)cc1[N+](=O)[O-] (centres unmarked) | -36.2
O=C(Nc1cccnc1)c1cc(-c2ccc(Cl)cc2)on1 | 12.7
CN(C=C1C(=O)CC(C)(C)CC1=O)CCN1CCNCC1 | -1.79
Cc1ccc(NC(=O)c2cc(-c3ccccc3O)n[nH]2)cc1Cl | 2.39
CCc1cccc(CC)c1NC(=O)Cn1c(-c2ccc(F)cc2)noc1=O | 24.2
COc1ccc(/C=N/OC(=O)Nc2ccccc2)cc1[N+](=O)[O-] | -58.4
CC(=O)Nc1ccc(/C=N/NC(=O)CNC(=O)c2ccccc2)cc1 | 17.6
CC12CN3CCN(CC(C3)C1(O)CN1CCCCC1)C2 (centres unmarked) | 3.92
COc1ccc(C(=O)N(CCc2ccccc2)Cc2cccs2)c(OC)c1 | -15.9
CC(=O)Nc1ccc(CN2CCCC(CO)(Cc3cccc(Cl)c3)C2)cc1 (centres unmarked) | -39.2

Compound | hERG current change (%, negative = inhibition) at 10uM [%]
COc1ccc(-c2nc3n(c(=O)c2C#N)CCCS3)cc1 | -4.57
O=C(c1cccn(Cc2cccc(Cl)c2)c1=O)N1CCOCC1 | 0.239
N#Cc1ccc(CN2CCN(C(=O)c3ccccc3)CC2)c(Cl)c1 | -33.2
S=C1NCN(CCc2ccccc2)CN1Cc1ccccc1 | 14.8
CCCCn1c(O)c(C=Nc2c(C)n(C)n(-c3ccccc3)c2=O)c(=O)[nH]c1=O | 4.96
CCOC(=O)CSc1ccc(-c2nc3ccccc3[nH]2)cn1 | -7.44
FC(F)(F)c1cccc(-c2nc(-c3ccncc3)no2)c1 | 5.61
Cc1ccc(S(=O)(=O)N(C)c2ccc(C(=O)NCc3ccccn3)cc2)cc1 | -11.7
CCOc1ccc2nc(N3CCC(C(=O)Nc4nnc(CC)s4)CC3)sc2c1 | 11.9
COc1cc(C=C2C(=O)c3ccccc3C2=O)cc(OC)c1OC | 22.8
Fc1cccc(Cl)c1-c1nnc2ccc(C(F)(F)F)cn12 | 10.9
CCCCc1nnc(SCc2ccc(OCC)cc2)n1N | 0.428
CC(C)[C@H](NC(=O)NCCc1ccccc1)C(=O)O | 9.27
CC(=O)Nc1ccc([C@H]2[C@H](C)CC[C@H]3C(=O)N4[C@@H](CC[C@@H](C)[C@@H]4c4ccc(NC(C)=O)cc4)C(=O)N32)cc1 | 24.7
CC1CCN(S(=O)(=O)c2ccc3c(c2)N(CC(=O)N(C)Cc2ccco2)C(=O)CO3)CC1 | 14.6
CN1CCN(c2nc3c(c(=O)[nH]c(=O)n3C)n2CCSc2nc3ccccc3s2)CC1 | -12.3
CC(=O)c1cccc(NC(=O)NCc2ccccn2)c1 | -5.95
CCCN(CCC)CCN1C(=O)C2C(C(=O)Nc3ccc(C)cc3)C3C=CC2(O3)C1C(=O)NC1CCCCC1 (centres unmarked) | -30.2
COc1ccc(C2C(C#N)=C(N)Oc3cc4c(cc32)OCO4)cc1 (centres unmarked) | -9.12

Compound | hERG current change (%, negative = inhibition) at 10uM [%]
C/C(=N\Nc1cccc2cccnc12)c1ccc[nH]1 | 11.6
Cc1ccc(CN2C(=O)N/C(=C\c3cccn3-c3cccc(C(=O)O)c3)C2=O)cc1 | 7.47
CN1CCCN(S(=O)(=O)c2ccc3ccccc3c2)CC1 | 1.43
O=P(O)(O)c1ccccc1OCc1ccccc1 | -1.55
O=C(COC(=O)C1=COCCO1)Nc1ccc(F)cc1 | -2.97
COc1ccc(C2Nc3ccccc3C(=O)N2O)cc1CN1CCOCC1 (centres unmarked) | -2.72
CCC1CCCCN1CCCNC(=O)c1ccc(/C=C2/Sc3ccccc3NC2=O)cc1 (centres unmarked) | -76.9
O=C(Nc1ccc(CN2CCCCC2)cc1)c1ccc(Br)o1 | -33
Cc1cc(-c2ccccc2)nc(SCC(=O)c2cccc([N+](=O)[O-])c2)n1 | -0.365
C=CCN1C(C(=O)c2ccccc2)=C(OC(=O)COc2ccccc2)c2ccccc2S1(=O)=O | 7.6
O=C(Cn1cnc2c(nnn2Cc2ccccc2)c1=O)c1ccc(Cl)cc1 | 10
CCN1C(=O)N[C@@H](c2cccc(C(F)(F)F)c2)[C@H](C(=O)OC)[C@H]1C | -2.23
O=C(COc1ccc2ccc(=O)oc2c1)Nc1ccc(N2CCOCC2)cc1 | 3.85
Cc1ccc(C(=O)COC(=O)c2cn(-c3ccccc3)nc2-c2ccccc2)cc1[N+](=O)[O-] | 2.97
COc1cc(C=O)ccc1OS(=O)(=O)c1ccc(NC(C)=O)cc1 | -5.18
O=C(Nc1ccnn1C1CCN(C(=O)c2ccc(Cl)cc2)CC1)C1CC1 | -24.2
CCC(NS(=O)(=O)c1cccs1)c1ccc(C)cc1 (centres unmarked) | 2.52
COc1ccccc1/C=C(\C#N)C(=O)Nc1ccc(S(N)(=O)=O)cc1 | 24.3
